# Results as given in publication PMC4336329 (PLoS ONE, 2015).
# Hit rate of the full screen: of about 310,000 compounds, about 14,000 (4.5%) showed an effect of 50% or more. The effect is printed as a negative number. The list shows a part of the results.
# Biological target: human ether-à-go-go-related gene (hERG) potassium channel (human, UniProt Q12809)
# Experiment: primary screen, population patch clamp on CHO cells stably expressing hERG
# 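Also: peak tail current of the secondary pulse compared with the same well before compound.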
# Chain of human ether-à-go-go-related gene (hERG) potassium channel (Q12809 whole entry, looked up): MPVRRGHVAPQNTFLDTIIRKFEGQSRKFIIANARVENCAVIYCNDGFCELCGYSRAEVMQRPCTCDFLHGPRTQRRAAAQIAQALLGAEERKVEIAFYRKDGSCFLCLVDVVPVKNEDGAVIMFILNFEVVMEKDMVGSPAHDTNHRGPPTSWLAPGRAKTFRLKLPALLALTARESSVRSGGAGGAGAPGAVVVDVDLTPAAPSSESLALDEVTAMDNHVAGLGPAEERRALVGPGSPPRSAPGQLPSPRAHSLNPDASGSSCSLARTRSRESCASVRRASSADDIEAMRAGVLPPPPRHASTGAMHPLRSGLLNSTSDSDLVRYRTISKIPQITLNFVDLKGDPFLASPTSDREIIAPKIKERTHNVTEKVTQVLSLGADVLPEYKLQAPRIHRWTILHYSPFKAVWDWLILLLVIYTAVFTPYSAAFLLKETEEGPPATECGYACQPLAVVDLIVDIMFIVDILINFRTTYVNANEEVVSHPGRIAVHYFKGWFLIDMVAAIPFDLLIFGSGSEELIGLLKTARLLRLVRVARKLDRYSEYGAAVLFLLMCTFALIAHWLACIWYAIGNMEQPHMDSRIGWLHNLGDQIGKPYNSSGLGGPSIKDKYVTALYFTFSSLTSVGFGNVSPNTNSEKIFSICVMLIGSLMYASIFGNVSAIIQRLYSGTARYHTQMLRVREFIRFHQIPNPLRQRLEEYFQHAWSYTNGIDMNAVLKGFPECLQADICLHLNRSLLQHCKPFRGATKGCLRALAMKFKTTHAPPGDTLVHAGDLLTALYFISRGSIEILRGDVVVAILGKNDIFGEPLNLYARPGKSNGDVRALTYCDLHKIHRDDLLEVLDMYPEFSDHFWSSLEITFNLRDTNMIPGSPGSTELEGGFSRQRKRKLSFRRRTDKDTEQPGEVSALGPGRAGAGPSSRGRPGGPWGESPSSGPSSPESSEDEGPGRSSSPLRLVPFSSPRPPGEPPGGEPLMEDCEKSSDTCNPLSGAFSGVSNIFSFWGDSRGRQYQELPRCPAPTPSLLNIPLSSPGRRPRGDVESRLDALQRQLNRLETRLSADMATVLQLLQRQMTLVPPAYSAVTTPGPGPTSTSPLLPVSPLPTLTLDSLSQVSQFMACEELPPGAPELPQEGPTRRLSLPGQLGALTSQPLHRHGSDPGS
row,Structure (SMILES),"hERG current change (%, negative = inhibition) at 10uM [%]"
1,CCOC(=O)Cn1nc(C)c(NC(=O)c2cccc([N+](=O)[O-])c2)c1C,-11
2,COc1ccc(CC(=O)NNC(=O)CSc2nnc(C)n2-c2ccccc2)cc1,-6.68
3,CNC(=O)c1ccsc1NC(=O)c1ccc(S(=O)(=O)N2CCCc3ccccc32)cc1,10.5
4,O=C(NC1CC1)c1cc2ccccc2o1,8.73
5,COC(=O)c1cc2nc(-c3ccc(OC)cc3)cc(C(F)(F)F)n2n1,10.5
6,c1ccc2c(c1)ncc1cccn12,13
7,COc1cccc(NC(=O)c2nc3nc(C)cc(C(F)F)n3n2)c1,4.23
8,COc1cc(Br)c(C(C)NC(=O)c2cccc(Br)c2)cc1OC (centres unmarked),-14.4
9,N#Cc1cc2c(nc1SCC(=O)N1CCCCC1)CCCCC2,-20.1
10,COc1ccc(Cl)cc1NC(=O)CN(C)C(=O)CCSc1ccc(C)cc1,-5.05
11,CC(C)C(NC(=O)c1c(F)cccc1F)C(=O)NC1CC(C)(C)NC(C)(C)C1 (centres unmarked),16.4
12,CCOC(=O)Nc1nc(-c2ccccc2)c(C(=O)c2ccccc2)s1,2.21
13,C=CCNC(=O)CC(=O)N/N=C/c1cccc(Br)c1,0.766
14,COC(=O)c1cc(OC)c(OC)cc1NC(=S)Nc1cccc(Cl)c1,7.26
15,O=C(NS(=O)(=O)Oc1ccc(Cl)cc1)OC[C@@H]1CCCN2CCCC[C@H]12,28.2
16,C=CCn1c(SCCN2CCOCC2)nc2c1c(=O)[nH]c(=O)n2C,8.38
17,CCn1c(NCc2cccs2)nc2ccccc21,-12.2
18,Cc1ccc(-c2cc(C(F)F)n3ncc(C(=O)Nc4ccc(S(=O)(=O)Nc5ccccc5C)cc4)c3n2)cc1,7.58
19,COc1ccc(-c2cc(C(=O)OCC(=O)NC3CC3)c3ccccc3n2)cc1,0.242
20,CCN(Cc1ccncc1)C(=O)CCc1nnc(CCC2CCCCC2)o1,-24.9
21,Cc1cc(/C=C2/NC(=O)NC2=O)c(C)n1-c1ccc(N2CCOCC2)cc1,19.4
22,Cc1cc(C(=O)Nn2c(C3CCCCC3)nc3ccccc3c2=O)ccc1[N+](=O)[O-],4.23

row,Structure (SMILES),"hERG current change (%, negative = inhibition) at 10uM [%]"
1,NC(=O)C1CCN(c2ccc(S(=O)(=O)N3CCCCC3)cn2)CC1,13.6
2,COc1ccccc1CCC(=O)Nc1ccc(OC)c(S(=O)(=O)N2CCOCC2)c1,3.09
3,O=C(c1cc2ccccc2oc1=O)N1CCN(c2ccc(N3CCOCC3)nn2)CC1,5.28
4,Cl.O=C(CCN1CCCCC1)Nc1cccc(Br)c1,-25.4
5,Cc1nn(C)c(Oc2ccccc2)c1CCNS(=O)(=O)c1ccc(Cl)cc1,-30.3
6,CCn1cc(C(=O)O)c(=O)c2cnc(N3CCN(C(=S)Nc4ccccc4)CC3)nc21,2.24
7,COc1ccc(C2C=C(C)Nc3nc4ccccc4n32)cc1 (centres unmarked),-2.74
8,CCOc1ccc(NC(=O)c2cccs2)c([N+](=O)[O-])c1,2.08
9,Cn1cccc1CC(=O)N/N=C\c1cccs1,7.68
10,Cc1cc(/C=N\NC(=O)CC(=O)NC2CCCCC2)c(C)n1-c1ccc(Cl)c(Cl)c1,12.5
11,CCOC(=O)[C@H]1[C@H]2COc3ccc(Br)cc3[C@@H]2N2C(=O)CN(Cc3ccc(OC)cc3)C(=O)[C@@]12C,12.1
12,CCCc1cc(=O)oc2cc(OCC(=O)N3C[C@H]4C[C@@H](C3)c3cccc(=O)n3C4)c(Cl)cc12,-14.7
13,C=CCn1c(SCC(N)=O)nnc1-c1cccc(Br)c1,-9.97
14,CCOC(=O)N1CCN(c2ccc(S(=O)(=O)N(Cc3ccccc3)Cc3ccccc3)cn2)CC1,-4.41
15,CC(C)c1ccccc1NC(=O)c1ccc(CN(c2ccccc2)S(=O)(=O)c2ccccc2)cc1,21
16,O=C(c1ccc(CS(=O)Cc2ccc(Cl)cc2)o1)N1CCN(c2ccccc2)CC1 (centres unmarked),-51.8
17,COc1cc(NC(=O)CSc2nc3c(c(=O)[nH]2)CCCC3)cc(OC)c1OC,8.11
18,CCOC(=O)C(CC)(CCC(=O)O)c1csc(N)n1 (centres unmarked),16.7
19,CC1C2C(C)N(C)C(=O)N(C)C2N(C)C(=O)N1C (centres unmarked),29.2
20,CN(CC(=O)Nc1ccc(Cl)cc1)CC(=O)Nc1ccc(C(N)=O)cc1,18.2
21,Cc1cccn2cc(-c3ccc(NC(=O)Cc4ccccc4)cc3)nc12,10.7
22,CC1CCCCN1CCNC(=O)C1CCCN(c2ncnc3c2nc2n3CCCCC2)C1 (centres unmarked),-14.3

row,Structure (SMILES),"hERG current change (%, negative = inhibition) at 10uM [%]"
1,Cn1c(NC(=O)c2ccccc2NC(=O)C(C)(C)C)nc2ccccc21,-1.93
2,O=C(Nc1nc2ccc(Cl)cc2s1)c1ccc(Br)o1,4.25
3,COc1cc([C@@H]2CC=C(C(=O)O)CN2S(=O)(=O)c2ccc(C)cc2)cc(OC)c1OC,17.8
4,CC1Nc2ncnc(N3CCN(c4ccccn4)CC3)c2N(Cc2ccccc2)C1=O.O=C(O)C(F)(F)F (centres unmarked),-19.8
5,N#Cc1ccc(C(=O)Nc2nc3ccccc3[nH]2)cc1,19
6,CN(C)/C=C1/C=C(C=O)OC1=O,8.74
7,O=c1c2ccccc2oc2cc(NCCCN3CCOCC3)ccc12,-29.7
8,O=C(N[C@@H](Cc1c[nH]c2ccccc12)C(=O)O)C1CCN(S(=O)(=O)c2cccs2)CC1,5.7
9,Cc1cc(C)cc(NC(=O)CN(C)CC(=O)N(CC(C)C)c2c(N)n(CC(C)C)c(=O)[nH]c2=O)c1,6.11
10,COc1ccnc(N2CCN(c3ccccc3)CC2)c1C#N,4.21
11,CC1CCN(S(=O)(=O)c2ccc3ncn(CC(=O)N(C)Cc4ccccc4)c(=O)c3c2)CC1,-61.7
12,Cn1c(=O)c(=O)n(C)c2cc(S(=O)(=O)N3CCN(c4cccc(C(F)(F)F)c4)CC3)ccc21,-1.46
13,Br.Fc1ccc(-c2csc(NC3=NCCC3)n2)cc1,-10.9
14,CCOc1ccc(OCC(=O)Nc2nccs2)cc1,19.8
15,O=C(N/N=C/c1cccnc1)c1ccccc1OCc1ccc(Cl)cc1,-38.4
16,O=C(NCc1ccc2c(c1)OCO2)C1CCCN(S(=O)(=O)c2cccc3cccnc23)C1 (centres unmarked),-19.8
17,CCN(CC)C(=O)CN1C(=O)c2cccc3cccc1c23,4.55
18,CCOC(=O)c1c(-c2ccccc2)csc1NC(=O)CCN1C(=O)c2ccccc2C1=O,4.17
19,CCOC(=O)C(NC(C)=O)C(OC(C)=O)c1cccc(N(CCO)CCO)c1 (centres unmarked),18.4
20,CC1CCC2(CC1)NC(=O)N(CC(=O)NC(=O)NC1CCCC1)C2=O (centres unmarked),5.53
21,Cc1oc(=O)c(NC(=O)c2ccccc2)cc1C(C)O (centres unmarked),27.5
22,COc1ccc(C(C(=O)NC2CCCCC2)N(C(=O)c2ccco2)c2ccccc2OC)cc1 (centres unmarked),-1.82

row,Structure (SMILES),"hERG current change (%, negative = inhibition) at 10uM [%]"
1,CC(=O)N/C(=C/c1ccc2c(c1)OCO2)C(=O)Nc1ccccc1,-2.13
2,O=C(CSCc1ccc(Cl)cc1)Nc1cccc(C(=O)Nc2ccccc2C(=O)O)c1,11.7
3,COc1ccc2ccccc2c1/C=N/NC(=O)c1ccc(C)nc1,15.4
4,O=C(NC1CCCN(Cc2ccc(Cl)cc2)C1)c1cccc(F)c1 (centres unmarked),-61.3
5,CCOc1cccc(OCCn2cnc3ccccc3c2=O)c1,5.84
6,CN1CC(=O)N2C(c3ccc(Cl)cc3)c3[nH]c4ccccc4c3C[C@H]2C1=O (some centres unmarked),-18.2
7,CCOC(=O)N1CCN(C(=O)c2ccc([N+](=O)[O-])cc2Cl)CC1,-14.3
8,CCOP(=O)(OCC)C(O)c1ccccc1 (centres unmarked),14.1
9,CCSc1nc(C2CC2)cc(-c2ccco2)c1C#N,12.7
10,CCN(CC)CCNc1ncnc2c1sc1nc(N3CCOCC3)c3c(c12)CCCC3,-32.8
11,O=C(NC(=S)Nc1ccccc1)c1cc([N+](=O)[O-])ccc1N1CCOCC1,6.13
12,Cc1nn(-c2ccccc2)nc1C(=O)Nc1ccc2c(c1)OCCO2,10.5
13,COc1cccc(NC(=O)CN(C)CC(=O)Nc2ccc3c(c2)CCC3)c1,-3.03
14,CCCCn1c(N)c(NCC(C)C)c(=O)[nH]c1=O,10.6
15,CCOC(=O)C1(CCOc2ccccc2)CCN(Cc2cccc3nonc23)CC1,-28.6
16,O=C(COC(=O)c1cc(S(=O)(=O)N2CCOCC2)ccc1Cl)NCc1ccc2c(c1)OCO2,-21.6
17,NS(=O)(=O)c1ccc(CCNC(=S)Nc2ccc(S(N)(=O)=O)cc2)cc1,9.69
18,Cc1ccc2nc(-c3ccsc3)c(NC3CCCC3)n2c1,-0.637
19,Cc1ccccc1-c1nn2c(-c3ccccc3)nnc2s1,11.9
20,Cc1ccc2[nH]c(=O)c(CN(CCN3CCOCC3)C(=O)Nc3ccc(F)cc3)cc2c1,-37
